The labels stand for the following.
B1: LINE1-mini (parent)
chain: GGCAGAGCUCAACACAGCGUGGCAAAGUGGCUGUGGCUAGACUGCC

Read counts are not given, so values of variants with three or more changes are uncertain.

In this data set the parent is B1. Description: self-cleavage, relative activity (ratio to wild type); higher = more cleavage; in vitro, sequencing; the parent is a self-cleaving ribozyme.
Turning to GGCAGAGCUCAACACAGCGUGGUAAAGUGGCGCAGGCUAGACUGCC [C23U U32G G33C U34A], the self-cleavage turned out to be 0.03.
The figure for GGCAGAGUUCAACACAGCAUGGCAAAGUGGCUGUAACUAGACUGCC [C8U G19A G35A G36A] is 1.13; for GGCAGCGCUCUCCACAGCGUGCCAAAGUGGCUGUGGCUAGACUGCC [A6C A11U A12C G22C] it is 0.02; for GGCAGAGCGCGACACAGCUUGGCUAAGUGGCUCUGGCUAGACUGCC [U9G A11G G19U A24U G33C] it is 0.01.
As for GGCAAAGCUCAACACAGCGUGGAAAGGUGGCUGUGGCUAGACUGCC [G5A C23A A26G], the self-cleavage amounted to 0.03.
As for GGCCUAGGUCAACACAGCGUGGGAAAGUGGCUGUGGUUAGACUGCC [A4C G5U C8G C23G C37U], the self-cleavage came to 0.32.
For GGCAGAGCUCAACACAGCGUGGCAAAGUGGCUUUGGAUAGACCGCC [G33U C37A U43C], the self-cleavage was 0.04.
As to GGCAGAGCUCAACACAGCGUGGCAAAGUGGCUUCGGCUAGACUUCC [G33U U34C G44U], the self-cleavage stood at 0.03.
With GGCACAGCUCACCAGCGCGUGGCAAAGUGGCUGUGGCAAGACUGCC [G5C A12C C15G A16C U38A] the figure was 0.02.
In the case of GGCAGAGGUCAACACAGGGUGGCACAGUCGCUGUGUCUAUACUGCC [C8G C18G A25C G29C G36U G40U], the self-cleavage amounted to 0.02.
Regarding GGCAGAACUCAACACAGCGUUGCCCAGUGGCUGUGGCUAGACUGCC [G7A G21U A24C A25C], the self-cleavage is 0.06.
On to GGCAGAGCUCAAAACAGCGUGGCACAGGGGCUGUGGCUAAACAGCC [C13A A25C U28G G40A U43A], for which the self-cleavage was 0.02.
In the case of GGCAGAGCUCAACACAGCGUUGCAAAGUGGGUGUGCCUAGACUGCC [G21U C31G G36C], the self-cleavage came out at 0.02.
Consider GGCAGAGCUCAACACAGCGUGGAAAAGUGGCAAUGGCUAGACUGCC [C23A U32A G33A], for which the self-cleavage turned out to be 0.34.
On to UGCAGAGCUCAACAUAGCGUGGCAAAGUGGAUGUGGUUAGACUGCC [G1U C15U C31A C37U], for which the self-cleavage stood at 0.06.
As to GGCGGAGCUCAACACAGCGUGGGAAAGUGGCUGUGGCUAGACUGCA [A4G C23G C46A], the self-cleavage worked out at 0.12.
For the variant GGCAGAGCUCAAUACAGCGUGGCAAAGUGGCUGUGCCUAGACUACC [C13U G36C G44A], the self-cleavage worked out at 0.15.
For the variant GGCAGAGCUCAACACAGCGAGGCAAGGUCGCUGUGGCUAGACUGCC [U20A A26G G29C], the self-cleavage is 0.33.
Consider GGAAGAGCUCAACACAGCGUGGCAAAGUGGCUGUGGAUAGACUGCG [C3A C37A C46G], for which the self-cleavage amounted to 0.21.
On to GGCAGAGCUCAACACAGCGUGGCAAAUUGGCGGUGGCUAGACAGCC [G27U U32G U43A], for which the self-cleavage stood at 0.03.
For GGCACAGCUCAGUACAGAGUGACAAAGUGGCUGUGGCUAGAAUGCC [G5C A12G C13U C18A G22A C42A], the self-cleavage is 0.05.
Take GGCAGAUCACAACACAGCGUGGCAAAGAGGCUGUGGCUAGACUGCC [G7U U9A U28A]: the self-cleavage turned out to be 0.08.
The figure for GAAAGAGCUCAACAGAGCGUUGCAAAGUGGCUGUGGCUAGAUUGCC [G2A C3A C15G G21U C42U] is 0.02.
With GGGAGAGUUCCACACAGCGUGGCAAAGUGGCUGUGGUUAGACUGCC [C3G C8U A11C C37U], the self-cleavage worked out at 0.31.
Regarding GGCAUAGCUCAACACAGCGUGGCAAAAUGGCUGUGGCUAGACUGUC [G5U G27A C45U], the self-cleavage was 0.06.
On to AGAAGAGCUCAACACAGCGGGGCAAAGUGGCUGUGGCUGGAGUGCC [G1A C3A U20G A39G C42G], for which the self-cleavage is 1.07.
Regarding GGCAGAGCUCAACACAGCGUGGCAGCGUGGUUUUGGCUAGACUGCC [A25G A26C C31U G33U], the self-cleavage was determined as 0.02.
With GGCAGUGCUCUACACAGCGUGGUAAAGUGGCUUUGGCUAUACUGCC [A6U A11U C23U G33U G40U] the figure was 0.04; with UGCAGAUCUCAACACAGCCUGGCAAAGUGGCUGUGGCUAGACUGCC [G1U G7U G19C], 0.03.
The figure for GGGAGAGCUUAACACAGCGUGGCAAAGUGGCUGUGGCUGGACUGCC [C3G C10U A39G] is 0.03; for GCCAGAGCUCAACGCAGCGUGGCAAAUUGGCUGUGGCUAGACAGCC [G2C A14G G27U U43A] it is 0.01.
Regarding GACAGAGCUCAGCACAGCGUGGCAAAGUGGCUCCGGCUAGACUGCC [G2A A12G G33C U34C], the self-cleavage was 0.14.
The figure for GGCAGAGCUCAACACAGGGUGCCAAAGUGGCUGUGGCUAGACUGUC [C18G G22C C45U] is 0.29; for GGCAGAGCUCAACACUGCGUGGCAAAGUGGCUGUGGCUAGUCAGCC [A16U A41U U43A] it is 0.14; for GGCAAAGCUCAACACAGCGUGGCAAAGUGGCUGUGGAUAGCCUGCC [G5A C37A A41C] it is 0.02.
Turning to GUCAGAGCUCAACACAGCGUGGCAAAGGGGCUGUGGCUCGACUGCC [G2U U28G A39C], the self-cleavage amounted to 0.06.
As for GGCAAAGCUCAACACAGCGUGGUAACGUGGCUGUGGCUAGACUGCC [G5A C23U A26C], the self-cleavage was found to be 0.05.
With GGCAGAGCUACACACAGCGUGGCAAAGUGUCUGUGGCUAGACUGCC [C10A A11C G30U] the figure was 0.03; with GGCAGAGCUAAACACCGCGUGGAAAAUUGGCUGUGGCUAGACUGCC [C10A A16C C23A G27U], 0.03; with GGCAGAGCUCAAUACAGAGUGGCAAAGUGGUUGUGGCUAGACUGCC [C13U C18A C31U], 0.07.
The figure for GGCACAUCUCAACACGGCGUGGCAAACUGGCUGUGGCUAGGCUGCC [G5C G7U A16G G27C A41G] is 0.03; for GGCAGAGCCCAACACAGCGUGGCAAAGUGGCCAUGGCUAGACUGCC [U9C U32C G33A] it is 0.05; for GGCAGAGCUCAACACAGCGUAGCAAAUUGGGUGUGGCUAGACUGCC [G21A G27U C31G] it is 1.13.
As to GGCAGAACUCAACACAGCGUGGCAAAGCGCCUGUGGCUAGACUGCC [G7A U28C G30C], the self-cleavage is 0.06.
As for GGCAGAGCUCAACAGAGCCUGGCAAAGUGGCUGUGGCUUGACUGCC [C15G G19C A39U], the self-cleavage was found to be 0.05.
On to GGCAGAGCUAUACACAGCGUGGCAAAGCGGCUGUGGCUAGACUGCC [C10A A11U U28C], for which the self-cleavage stood at 0.04.
As to GGCAGAGAUCAACACAGCGUGGCCAAGUGGCUUUGGCUAGACUGCC [C8A A24C G33U], the self-cleavage amounted to 0.19.
As for GGCAGAGCUCAACACAGCGUGGCUAAGUGCUUGUGGCUAGACUGAC [A24U G30C C31U C45A], the self-cleavage was determined as 0.04.
Regarding GGCAGAGCUCAACACAGCGUGGCAAAAUGGAUGUGGCUAGAAUGCC [G27A C31A C42A], the self-cleavage worked out at 0.27.
For GGCAGAGCUCAACACUGCGUGGCAAAUUGGCUGUGGCUAGACUGCA [A16U G27U C46A], the self-cleavage was found to be 1.47.
In the case of GGCAGAGCUCAACACAGAGUCGCAAAGUGGCUGUGGGUAGACUGCC [C18A G21C C37G], the self-cleavage is 0.
With GGCAGAGCUCAACACACCGUGACAAACUGGCUGUAGCUAGACUGCC [G17C G22A G27C G35A], the self-cleavage amounted to 0.12.
Consider GGCAGAGGUCAACACAGCGUGGCAAGGUGGCUGUGUCUAGACUGCC [C8G A26G G36U], for which the self-cleavage is 0.21.
On to GACAGAGCUCAACACAGCGUGGCAUAGUGACUGUGGCUAGACUGGC [G2A A25U G30A C45G], for which the self-cleavage is 0.11.
Take GGCAGAGUACAACACAGCGUGGCAAAGUGGCUGAGGCUAGACUGCC [C8U U9A U34A]: the self-cleavage amounted to 0.61.
As for GGCAGCGCGCAACACGGCAUCGCAAAGUGGCUGUGGCUAGACUGCC [A6C U9G A16G G19A G21C], the self-cleavage turned out to be 0.05.

The values are drawn from the RNAGym collection of RNA variant scans (doi:10.7554/elife.90254).
